The structures appear in SMILES notation. In all, about 45,000 compounds went through this assay and about 65 (0.1%) were called active. Calls come from the whole dose curve; as a rule, active = well fitted activation curve with a large enough effect; inconclusive = small, poorly fitted or top-dose-only effect; inactive = no such curve, though single readings can be large or run the other way. The list shows a part of the results.

Results on 49 compounds are retold here after PubChem BioAssay AID1159614 (National Center for Advancing Translational Sciences (NCATS), 2016).

The target in the test is Galactocerebrosidase (Homo sapiens) (UniProt P54803). In words: A Novel Cell-Based Assay to Identify Small Molecules for B -Galactocerebrosidase. Note: 0% is about no effect; nearly all actives have a fitted effect of over 65% in size. To be noted: 145M-Twi-hGALC-G270D cells (Twitcher mouse brain line with human GALC G270D), HMU-beta-Gal fluorescence, 48 h; series mostly up to 57.5 µM; activation: at the top concentration. The gist of the method: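 Mutant human GALC (G270D), stably expressed in a Twitcher mouse brain cell line lacking endogenous GALC, is measured in live-treated cells via 6-hexadecanoylamino-4-methylumbelliferyl-β-galactoside hydrolysis (0.1 mM final, pH 5.2) with fluorescent detection.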
UniProt P54803, sequence (P54803 whole entry, looked up): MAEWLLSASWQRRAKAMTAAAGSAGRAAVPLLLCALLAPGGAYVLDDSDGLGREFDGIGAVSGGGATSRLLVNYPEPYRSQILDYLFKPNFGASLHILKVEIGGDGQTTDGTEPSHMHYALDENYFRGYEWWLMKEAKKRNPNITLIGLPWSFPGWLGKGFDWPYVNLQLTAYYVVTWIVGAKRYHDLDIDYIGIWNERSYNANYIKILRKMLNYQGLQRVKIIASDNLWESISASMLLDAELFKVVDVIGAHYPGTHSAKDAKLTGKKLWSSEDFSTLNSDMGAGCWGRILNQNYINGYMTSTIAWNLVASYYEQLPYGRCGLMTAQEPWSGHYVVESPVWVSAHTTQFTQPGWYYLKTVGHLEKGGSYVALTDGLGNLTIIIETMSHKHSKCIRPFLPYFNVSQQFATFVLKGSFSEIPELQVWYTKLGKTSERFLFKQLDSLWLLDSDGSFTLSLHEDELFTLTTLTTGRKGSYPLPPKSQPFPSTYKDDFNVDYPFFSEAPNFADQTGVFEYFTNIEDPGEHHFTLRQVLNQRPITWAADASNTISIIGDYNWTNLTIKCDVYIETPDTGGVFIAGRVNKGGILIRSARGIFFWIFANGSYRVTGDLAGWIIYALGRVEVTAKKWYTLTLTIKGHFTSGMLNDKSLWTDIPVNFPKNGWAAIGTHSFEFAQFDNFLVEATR
As to `COc1ccc(-c2cc3nc(C)c(CCC(=O)NC4CCCCC4)c(C)n3n2)c(OC)c1`, the “activation” value was inactive: -20.6%. The same measure for `CC(C)Oc1ccc(C(=O)N(Cc2ccco2)Cc2cccs2)cc1`: inactive: -7.19%; for `COc1ccccc1NC(=O)c1c(C)cc(C)nc1SCC(=O)c1ccc(Cl)cc1`: inactive: -10%; for `CCOC(=O)c1ccccc1NC(=O)CSc1nccn1Cc1ccco1`: inactive: -14%.

As to `Cc1cc(OCC(=O)N(Cc2ccc(N(C)C)cc2)CC2CCCO2)ccc1Cl` (centres undefined), the “activation” value is inactive: -12.5%. As for `Cc1cccc(C)c1NC(=O)c1sc(-n2nc(C)c(Cc3ccccc3)c2C)nc1C`, the “activation” value is inactive: -11.8%. `O=C(CSc1ncc(S(=O)(=O)c2ccc(Cl)cc2)c(=O)[nH]1)Nc1cccc(C(F)(F)F)c1`: the “activation” value is inactive: -10.2%. Next, `Cc1ccc(-c2ccc(=O)n(CC(=O)NCCc3ccc(Cl)cc3)n2)cc1`: inactive: -6.11%; `O=C(Nc1ccc2nc(SCCOc3ccccc3)sc2c1)c1ccccc1F`: inactive: -10.7%; `CCCCNS(=O)(=O)c1ccc(N2CCCCS2(=O)=O)cc1`: inactive: -19.7%. Next, `Cc1ccc(CSC2=Nc3ccccc3C3=NC(CC(=O)NCc4cccs4)C(=O)N23)c(C)c1` (centres undefined): inactive: -8.55%. The same measure for `CCc1ccc(N(CC)C(=O)CCn2cnc3onc(-c4ccc(F)cc4)c3c2=O)cc1`: inactive: -6.27%; for `COc1ccc(-c2cn3c(n2)sc2cc(C(=O)Nc4cccc(SC)c4)ccc23)cc1`: inactive: -0.495%; for `CCOC(=O)c1c(C)c(-c2ccccc2)n(CC(=O)Nc2ccc(OCC)cc2)c1C`: inactive: 0.114%. Turning to `COc1cccc2c1cc1c(=O)n(CC(=O)N3CCN(c4cccc(Cl)c4)CC3)nc(C)n12`, the “activation” value is inactive: -10.9%. As for `COc1ccc(NC(=O)c2c(NCc3cccs3)sc3c2CCCC3)c(OC)c1`, the “activation” value was inactive: -10.5%.

`COC(=O)C(CCSC)NC(=O)Cn1ncc2c([nH]c3ccccc32)c1=O` (centres undefined): the “activation” value was inactive: -4.28%.

Turning to `CCCOc1ccc(CNC(=O)c2ccc3c(c2)N(Cc2ccccc2)CCS3)cc1`, the “activation” value was inactive: -20.5%. Turning to `O=C(OCc1cc(=O)n2nc(-c3cccs3)sc2n1)c1ccccc1`, the “activation” value was inactive: -11%.

With `CC(=O)n1nc(-c2cccnc2)nc1NCc1ccc(F)cc1`, the “activation” value is inactive: -14.3%.

Regarding `CCOc1ccc(NC(=O)c2c(NCc3ccc(C)o3)sc3c2CCCCC3)cc1`, the “activation” value was inactive: -25.5%. Take `Cc1ccc(CNC(=O)CN2C(=O)CSc3ccc(S(=O)(=O)N(C)C)cc32)cc1`: the “activation” value is inactive: 6.93%. Turning to `CCn1cc(C(=O)OCC(=O)Nc2cc(OC)cc(OC)c2)c(=O)c2ccc(C)nc21`, the “activation” value is inactive: -9.8%.

For `O=C1c2oc3ccccc3c(=O)c2C(c2ccc(O)cc2)N1Cc1ccc2c(c1)OCO2` (centres undefined), the “activation” value is inactive: -15.4%. With `O=C(c1ccc(Cl)cc1)N1CCC(c2nc3ccccc3o2)CC1`, the “activation” value is inactive: -16.3%. For the compound `Cc1nn(C)c2c1c(-c1ccccc1)cc(=O)n2Cc1ccccc1C#N`, the “activation” value is inactive: -0.745%. Next, `CC(C)CN(CCCNC(=O)c1cc(-c2cccs2)nc2ccccc12)CC(C)C`: inactive: 5.86%. The same measure for `CCN1CCN(CCCNC(=O)c2cnn(-c3ccccc3Cl)c2C2CCN(C(=O)OC(C)(C)C)CC2)CC1`: inactive: 0.186%. Next, `CCOC(=O)C1CCCN(c2c(C(=O)c3ccc(OCC)cc3)cnc3ccccc23)C1` (centres undefined): inactive: -9%; `Cc1cc(OCC(=O)Nc2c(C(=O)c3ccccc3)oc3ccccc23)cc(C)c1Cl`: inactive: -14.1%; `Cc1cccc(C)c1NC(=O)Cn1nnc(C(=O)Nc2c(C)cccc2C)c1N`: inactive: -5.96%. In the case of `CCCCc1nn2c(=O)cc(COC(=O)c3cccc(Cl)c3)nc2s1`, the “activation” value is inactive: -7.42%. Consider `O=C(c1ccccc1)c1cn(Cc2ccc(F)cc2)c2ccccc2c1=O`, for which the “activation” value was inactive: -9.99%. Regarding `O=C(CCC1N=C2c3ccccc3N=C(SCc3cccc(F)c3)N2C1=O)NCCc1ccccc1` (centres undefined), the “activation” value is inactive: -5.45%. The same measure for `Cc1cc(F)ccc1NC(=O)C1CCN(C(=O)c2cnn(-c3ccccc3)c2-n2cccc2)CC1`: inactive: -15.9%. Next, `COc1ccc(C)cc1NC(=O)CCNC(=O)Cn1ccc2ccccc2c1=O`: inactive: 10.6%; `COc1ccc(NC(=O)c2oc3ccccc3c2NC(=O)Cc2coc3cc(C)ccc23)cc1`: inactive: -14.6%. Next, `CCOC(=O)c1c(C)[nH]c(CCC(=O)NCc2cccc(C)c2)c1C`: inactive: -7.52%; `CN1C(=O)Cc2cc(S(=O)(=O)CCC(=O)Nc3ccc(Cl)c(C(F)(F)F)c3)ccc21`: inactive: -6.18%. For `Cc1ccc(CNC(=O)CN2C(=O)CSc3c2c(C)nn3-c2ccccc2)cc1`, the “activation” value was inactive: -4.5%. The same measure for `O=C(NCc1ccccc1Br)c1ccc2c(c1)nc1n2CCOC1`: inactive: -3.19%; for `Cn1c(-c2ccccc2)cnc1NCc1ccccc1O`: inactive: -13.4%. The same measure for `CCCNC(=O)COCc1cc(-c2ccc(F)cc2)on1`: inactive: -14.4%; for `O=C(CCC1N=C2c3ccccc3N=C(SCc3ccccc3F)N2C1=O)NCc1ccccc1` (centres undefined): inactive: -10.9%. The same measure for `COc1ccc(-n2ncc(C(=O)Nc3ccc4c(c3)OCO4)c2C2CCN(C(=O)OC(C)(C)C)CC2)cc1`: inactive: -16.1%. With `Cc1ccc(NC(=O)Cn2cc(S(=O)(=O)Cc3cccc(Cl)c3)c3ccccc32)cc1C`, the “activation” value is inactive: -13.8%. Next, `COc1ccc(C2=C(C)C(=NCCCN3CCN(c4cc(Cl)ccc4C)CC3)NS2(=O)=O)cc1`: inactive: -12.3%. Consider `COc1ccc2oc(-c3ccc(C)c(NC(=O)c4ccc5c(c4)OCCO5)c3)nc2c1`, for which the “activation” value is inactive: 1.24%. Next, `O=C(Cn1nc(-c2ccccc2)c2c(c1=O)CCCC2)Nc1ccc(F)c(Cl)c1`: inactive: -28.4%.
